# PubChem BioAssay (NCATS)
# Inconclusive means that the source gave no clear call. Such entries were picked first, then a sample of the others. For part of these data: Potencies of inconclusive entries are doubtful fits and often do not repeat. The source made the active and inactive calls. Unless noted, calls come from the whole dose curve; as a rule, active = well fitted curve in the direction sought with a large enough effect; inconclusive = small, poorly fitted or top-dose-only effect, or another doubt; inactive = no such curve, though single readings can be large; an effect the other way counts as inactive or inconclusive.
# Key:
# [1] = P-glycoprotein substrates identified in KB-8-5-11 adenocarcinoma cell line, qHTS therapeutic library screen (AID 1346987); note: potency is the fitted concentration of half-maximal effect; nearly all actives have a fitted effect of over 65% in size
# Summary of the method: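 In this qHTS, P-gp-rich KB-8-5-11 cells received library compounds across a concentration range. Viability was quantified by luminescence after 72 h at 37 degree C.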
# [2] = molecular target: Cytochrome P450 2D6 (Homo sapiens) (UniProt P10635); experiment: Cytochrome P450 family 2 subfamily D member 6 (CYP2D6) small molecule antagonists: luciferase biochemical (cell-free) qHTS assay (AID 1645840; active = well fitted curve in the direction sought with a large enough effect in the repeat runs; inconclusive = weak or mixed curves; inactive = no such curve, though single readings can be large; an effect the other way counts as inactive or inconclusive; note: potency is the fitted concentration of half-maximal effect; nearly all actives have a fitted effect of over 55% in size)
# Summary of the method: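 P450-Glo CYP2D6 system: proluciferin substrate converted by enzyme to luciferin, read by luminescence proportional to activity. Enzyme-substrate mix with compound 10 min at room temperature, then NADPH regeneration 1 h before detection reagent.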
# [3] = Primary qHTS for inhibitors of nuclear receptor binding SET domain protein 2 (NSD2) in an isogenic RCH-ACV NSD2 p.E1099K mutant (9B) (AID 1645876); note: potency is the fitted concentration of half-maximal effect; nearly all actives have a fitted effect of over 70% in size
# [4] = Primary qHTS for inhibitors of nuclear receptor binding SET domain protein 2 (NSD2) in an RCH-ACV wild type WT cells (2C) (AID 1645877); conditions: activity change, negative = cell killing: at 44.9 µM (top of the series) unless noted; note: potency is the fitted concentration of half-maximal effect; nearly all actives have a fitted effect of over 70% in size
# [5] = Primary fluorescence-based thiol-reactive (MSTI) qHTS assay for identification of artifact compounds. (AID 1845221); note: potency is the fitted concentration of half-maximal effect;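 note: thiol-reactive compounds lower the probe fluorescence signal; nearly all actives have a fitted effect of over 65% in size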
# Summary of the method: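 First, 4 uM MSTI in 2% DMSO/PBS pH 7.4 was dispensed; next, compounds were added; then plates sat 1 h at room temperature without light. Finally, emission at 598 nm was recorded.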
# [6] = system: Nanoluciferase (engineered Oplophorus gracilirostris luciferase); experiment: Primary Nanoluciferase (NLuc) qHTS assay for identification of artifact compounds. (AID 1845222);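 note: 0% = DMSO and -100% = no enzyme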
# Summary of the method: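 Diluted conditioned medium from NLuc-expressing S16 cells treated with compounds for 15 min at room temperature, then Nano-Glo substrate added; luminescence read after 5 min. Percent inhibition versus no-enzyme and DMSO controls fitted to 4-parameter Hill equation.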
# [7] = system: HEK293; experiment: Cytotoxic Profiling of Annotated Libraries Using Quantitative High-Throughput Screening (AID 1296008); conditions: Five cell lines viability, CellTiter-Glo ATP luminescence, 48-72 h; max response: hits give low values; note: nearly all actives have a fitted effect of over 60% in size; note: potency is the fitted concentration of half-maximal effect; for max response: % is set by controls: 0 for no effect and ±100 for the full control effect
# Summary of the method: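 Cells exposed to compounds for 48 or 72 hr at 37 degrees Celsius. Viability read as ATP-coupled luminescence with CellTiter-Glo after 10 min at room temperature.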
# [8] = system: PA-1; experiment: Primary qHTS to identify gynecologic anti-cancer compounds using libraries of approved drugs and bioactive compounds (AID 1345084); conditions: Gynecologic cancer cell panel viability, ATPlite luminescence, 48 h; series mostly up to 57.5 µM; note: nearly all actives have a fitted effect of over 55% in size; note: potency is the fitted concentration of half-maximal effect; for activity change, negative = cytotoxicity: % is set by controls: 0 for no effect and ±100 for the full control effect
# Summary of the method: (§1)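 48 h compound exposure at 37 C, 5% CO2; five-point qHTS. ATPlite luminescence readout of cell ATP.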
# [9] = system: Zika virus NS2B-NS3 protease (unlinked complex); experiment: Primary screen GU Rhodamine qHTS for Zika virus inhibitors: Unlinked NS2B-NS3 protease assay (AID 1347159); note: potency is the fitted concentration of half-maximal effect; nearly all actives have a fitted effect of over 60% in size
# Summary of the method: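 In dose–response format, inhibition of unlinked protease (25 nM) was measured with 1.5 microM bis-peptide Rhodamine110 substrate. Aprotinin served as the intraplate control.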
# [10] = molecular target: Cytochrome P450 2C9 (Homo sapiens) (UniProt P11712); experiment: Cytochrome P450 family 2 subfamily C member 9 (CYP2C9) small molecule antagonists: luciferase biochemical (cell-free) qHTS assay (AID 1645842; active = well fitted curve in the direction sought with a large enough effect in the repeat runs; inconclusive = weak or mixed curves; inactive = no such curve, though single readings can be large; an effect the other way counts as inactive or inconclusive; note: potency is the fitted concentration of half-maximal effect; nearly all actives have a fitted effect of over 55% in size)
# Summary of the method: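 P450-Glo CYP2C9 system: proluciferin substrate with enzyme in mix containing 0.4% BSA, 10 min at room temperature, then NADPH regeneration solution added and incubated 1 h at 37C. Detection reagent stopped reaction; luminescence read after 20 min as RLU.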
# [11] = Primary redox qHTS assay for identification of artifact compounds. (AID 1845223); conditions: Amplex Red/HRP redox cycling with DTT, fluorescence; redox activity (% of DA3003): at 53.8 µM (top of the series); note: potency is the fitted concentration of half-maximal effect
# Summary of the method: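 Redox-cycling detection via DTT (250 uM final) oxidation coupled to Amplex Red (25 uM)/HRP (250 mU/mL) in HBSS. 15 min preincubation plus 30 min after DTT, room temperature. Ex/Em 525/598 nm; 4-parameter Hill fit against DMSO and 10 uM DA3003.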
# [12] = system: Zika virus NS2B-NS3 protease (linked construct); experiment: Primary screen NINDS Rhodamine qHTS for Zika virus inhibitors (AID 1347160); conditions: activity change, negative = inhibition: at 57.1 µM (top of the series) unless noted; note: nearly all actives have a fitted effect of over 55% in size
# Summary of the method: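 Each compound, titrated, sat 15 min with 25 nM linked protease before 1.5 microM Rhodamine110 substrate went in. Fluorescence gain over the next 15 min, in pH 8.0 Tris with Tween 20, gave Hill-fitted curves.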
# [13] = system: SKOV3; experiment: Primary qHTS to identify gynecologic anti-cancer compounds using libraries of approved drugs and bioactive compounds (AID 1345084); conditions: Gynecologic cancer cell panel viability, ATPlite luminescence, 48 h; series mostly up to 57.5 µM; note: nearly all actives have a fitted effect of over 55% in size; note: potency is the fitted concentration of half-maximal effect; for activity change, negative = cytotoxicity: % is set by controls: 0 for no effect and ±100 for the full control effect
# Summary of the method: as §1
# [14] = system: Tov-21-G; experiment: as above; conditions: Gynecologic cancer cell panel viability, ATPlite luminescence, 48 h; activity change, negative = cytotoxicity: at 57.5 µM (top of the series) unless noted
# Summary of the method: as §1
# [15] = system: Tov112D; experiment: as above; conditions: Gynecologic cancer cell panel viability, ATPlite luminescence, 48 h; series mostly up to 57.5 µM
# Summary of the method: as §1
# [16] = qHTS of pediatric cancer cell lines to identify multiple opportunities for drug repurposing: Primary screen for Saos-2 cells (AID 1347097); note: potency is the fitted concentration of half-maximal effect; nearly all actives have a fitted effect of over 40% in size
# Summary of the method: (§2)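 Cells plated at 500-1,000/well in growth medium, compounds added after 5 h. MIPE tested at 11 points (from 0.78 nM), NPC at 8 points (from 0.59 nM). CellTiter-Glo luminescence after 48 h; concentration-response curves from primary screen.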
# [17] = qHTS of pediatric cancer cell lines to identify multiple opportunities for drug repurposing: Primary screen for SK-N-SH cells (AID 1347098); note: potency is the fitted concentration of half-maximal effect; nearly all actives have a fitted effect of over 65% in size
# Summary of the method: (§3)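 Cells (500-1,000/well) rested 5 h, then received compounds for 48 h; metabolically active cells were measured by CellTiter-Glo luminescence. Final concentrations spanned up to 46 µM (MIPE, 11-point) or 0.59 nM-46 µM (NPC, 8-point) in primary screens, 11-point in follow-ups.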
# [18] = qHTS of pediatric cancer cell lines to identify multiple opportunities for drug repurposing: Primary screen for NB1643 cells (AID 1347099);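 note: plate controls were DMSO neutral control for no effect and bortezomib positive control for full effect; nearly all actives have a fitted effect of over 50% in size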
# Summary of the method: as §2
# [19] = qHTS of pediatric cancer cell lines to identify multiple opportunities for drug repurposing: Primary screen for BT-12 cells (AID 1347101); note: potency is the fitted concentration of half-maximal effect; nearly all actives have a fitted effect of over 25% in size
# Summary of the method: as §3
# [20] = qHTS of pediatric cancer cell lines to identify multiple opportunities for drug repurposing: Primary screen for OHS-50 cells (AID 1347103); note: potency is the fitted concentration of half-maximal effect; nearly all actives have a fitted effect of over 40% in size
# Summary of the method: as §3
# [21] = system: Zika virus NS2B-NS3 protease (unlinked complex); experiment: Confirmatory screen GU AMC qHTS for Zika virus inhibitors (AID 1347153);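 note: enzyme at 25 nM with substrate at 10 µM below its Km of 18.3 µM; potency is the fitted concentration of half-maximal effect; nearly all actives have a fitted effect of over 70% in size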
# Summary of the method: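 Unlinked NS2B-NS3 complex (25 nM) in 10 mM Tris-HCl pH 8.0, 0.01% Tween 20 preincubated 15 min with compound, then 10 microM Bz-Nle-KRR-AMC (Km 18.3 µM). Fluorescence change over 15 min, normalized, Hill-fitted.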
# [22] = system: Zika virus NS2B-NS3 protease; experiment: Primary screen GU AMC qHTS for Zika virus inhibitors (AID 1347154); note: potency is the fitted concentration of half-maximal effect; nearly all actives have a fitted effect of over 70% in size
# Summary of the method: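 Unlinked Zika NS2B hydrophilic domain–NS3 protease complex at 25 nM in 10 mM Tris-HCl pH 8.0, 0.01% Tween 20, with an AMC peptide substrate. Fluorescence change (340/450 nm) over 15 min at room temperature, normalized to controls, fitted to 4-parameter Hill.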
# [23] = Confirmatory screen NINDS Rhodamine qHTS for Zika virus inhibitors (AID 1347161); note: potency is the fitted concentration of half-maximal effect; nearly all actives have a fitted effect of over 60% in size
# Summary of the method: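 Enzyme (25 nM, linked NS2B-NS3) was preincubated 15 min with compound in 10 mM Tris-HCl pH 8.0, 0.01% Tween 20. Rhodamine110 substrate (1.5 microM) was then added and fluorescence read at start and after 15 min.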
# [24] = Tertiary RLuc qRT-PCR qHTS assay for Zika virus inhibitors (AID 1347169)
# Summary of the method: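 Luminescence read-out: live-cell Renilla luciferase substrate applied to infected Vero cells, signal measured after 1-1.5 hrs. Cells had received compound before ZIKV-RLuc (Cambodian strain, MOI 1-2) infection and were incubated 48-72 hrs at 37 degrees C.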
# [25] = qHTS to identify inhibitors of the type 1 interferon - major histocompatibility complex class I in skeletal muscle: primary screen against the NCATS Pharmaceutical Collection (AID 1347407); conditions: human skeletal muscle cells, IFN-b-induced MHC-I HiBiT luminescence, 24 h; activity change, negative = inhibition: at 45.9 µM (top of the series);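 note: luminescence of HiBiT knocked into endogenous HLA-B as interferon-induced MHC class I level; % is set by controls: 0 for no effect and ±100 for the full control effect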
# Summary of the method: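 HLA-B HiBiT myoblasts, dexamethasone-free growth medium + 4 ng/ml IFN-b; compounds pinned 1 h after seeding, […] from 46 uM; 24 h, 37 C, 5% CO2; lytic HiBiT detection, 10 min RT, luminescence.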
# [26] = Primary qHTS for small molecule stabilizers of the endoplasmic reticulum resident proteome: Secreted ER Calcium Modulated Protein (SERCaMP) assay (AID 1508630); conditions: SH-SY5Y GLuc-SERCaMP (Gaussia luciferase released on ER calcium loss) secretion, thapsigargin, luminescence; activity change, negative = inhibition: at 38.4 µM (top of the series) unless noted; note: potency is the fitted concentration of half-maximal effect
# Summary of the method: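 The SH-SY5Y reporter protocol was run at 3 concentrations up to 38.3 uM (primary) or 11 concentrations (follow-up): 16 h compound, 100 nM thapsigargin for 4 h, then extracellular luciferase luminescence.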
# Tags give direction and shape of the fitted curve.
# Sequence of UniProt P10635 (P10635 whole entry, looked up): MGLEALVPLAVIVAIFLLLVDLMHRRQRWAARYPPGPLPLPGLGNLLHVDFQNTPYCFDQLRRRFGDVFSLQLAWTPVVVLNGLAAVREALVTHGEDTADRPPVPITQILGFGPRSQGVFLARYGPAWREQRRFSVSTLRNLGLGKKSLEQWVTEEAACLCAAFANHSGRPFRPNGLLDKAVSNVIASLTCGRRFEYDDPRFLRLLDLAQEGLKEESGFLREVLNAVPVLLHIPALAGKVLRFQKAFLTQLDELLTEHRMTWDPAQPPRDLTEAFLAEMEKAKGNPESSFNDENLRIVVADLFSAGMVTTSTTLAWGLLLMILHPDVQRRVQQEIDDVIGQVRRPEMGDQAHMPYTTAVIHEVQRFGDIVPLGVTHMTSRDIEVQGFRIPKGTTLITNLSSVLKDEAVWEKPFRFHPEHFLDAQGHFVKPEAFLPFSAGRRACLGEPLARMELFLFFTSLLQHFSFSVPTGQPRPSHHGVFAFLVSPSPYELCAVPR
# Sequence of UniProt P11712 (P11712 whole entry, looked up): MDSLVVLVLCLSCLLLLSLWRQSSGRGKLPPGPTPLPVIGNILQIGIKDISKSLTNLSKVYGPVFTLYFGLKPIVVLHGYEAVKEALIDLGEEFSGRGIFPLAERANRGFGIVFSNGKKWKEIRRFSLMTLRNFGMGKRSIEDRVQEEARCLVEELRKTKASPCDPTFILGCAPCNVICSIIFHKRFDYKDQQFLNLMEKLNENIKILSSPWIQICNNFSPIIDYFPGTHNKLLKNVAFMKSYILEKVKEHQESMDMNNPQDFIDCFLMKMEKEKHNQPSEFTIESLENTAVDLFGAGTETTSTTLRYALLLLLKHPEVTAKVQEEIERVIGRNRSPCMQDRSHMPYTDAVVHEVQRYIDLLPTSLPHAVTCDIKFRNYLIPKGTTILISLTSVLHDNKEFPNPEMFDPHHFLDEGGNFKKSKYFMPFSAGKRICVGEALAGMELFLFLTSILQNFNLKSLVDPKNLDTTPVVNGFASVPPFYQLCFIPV
compound,measurement,setting,value
O=C(C(Cc1cccc(C(F)(F)F)c1)NS(=O)(=O)c1cc(F)c2c(c1)CCNC2)N1CCCC1 (stereo not given),Potency,[1],"inconclusive: 10.3 µM [inhibitor, partial curve]"
same,Potency,[2],active: 13.5 µM
same,Potency,[3],"inconclusive: 23 µM [inhibitor, partial curve]"
same,Potency,[4],"inconclusive: 9.16 µM [inhibitor, partial curve]"
same,Potency,[5],inactive
same,Potency,[6],inactive
same,Potency,[7],"inconclusive: 18.4 µM [inhibitor, single point]"
same,Potency,[8],inactive
CC(CCC1(O)OC2CC3C4CCC5CC(O[C@@H]6O[C@H](CO)[C@@H](O)[C@H](O)[C@H]6O[C@@H]6O[C@@H](C)[C@H](O)[C@@H](O)[C@H]6O)C(O)CC5(C)C4CCC3(C)C2C1C)CO[C@@H]1O[C@H](CO)[C@@H](O)[C@H](O)[C@H]1O (stereo not given in full),Potency,[3],"inconclusive: 4.88 µM [inhibitor, single point]"
same,max response,[7],inactive: 0.184%
same,Potency,[8],"inconclusive: 2.51 µM [cytotoxic, partial curve]"
OC[C@H]1O[C@@H](OC[C@H]2O[C@@H](OCc3ccccc3)[C@H](O)[C@@H](O)[C@@H]2O)[C@H](O)[C@@H](O)[C@@H]1O,Potency,[5],"inconclusive: 1.64 µM [inhibitor, full curve, poor fit]"
same,max response,[7],inactive: -4.26%
same,Potency,[8],inactive
CC(C)(C)c1ccc2c(c1)CC[C@H]2NC(=O)Nc1cccc2[nH]ncc12,Potency,[9],"inconclusive: 56.2 µM [inhibitor, partial curve, poor fit]"
same,Potency,[10],"inconclusive: 6.01 µM [inhibitor, partial curve, poor fit]"
same,Potency,[7],"inconclusive: 23.1 µM [inhibitor, single point]"
same,Potency,[8],inconclusive: 100 µM
CCN(CC)CCCS(=O)(=O)N[C@H](CCc1ccccc1)c1nc(Cc2ccc(Br)cc2)no1,Potency,[1],active: 23.1 µM
same,Potency,[10],"inconclusive: 30.1 µM [inhibitor, partial curve, poor fit]"
same,Potency,[3],"inconclusive: 29 µM [inhibitor, single point]"
same,Potency,[4],"inconclusive: 18.3 µM [inhibitor, single point]"
same,Potency,[11],"inconclusive: 21.2 µM [activator, partial curve, poor fit]"
same,Potency,[7],"inconclusive: 29.1 µM [inhibitor, single point]"
same,Potency,[8],inactive
Cc1ccc(-c2ncc[nH]2)cc1NC(=O)c1ccc(OCc2ccccn2)cc1,Potency,[1],"inconclusive: 20.6 µM [inhibitor, single point]"
same,Potency,[12],inactive
same,Potency,[2],"inconclusive: 23.9 µM [inhibitor, single point]"
same,Potency,[10],"inconclusive: 26.8 µM [inhibitor, partial curve, poor fit]"
same,Potency,[3],"inconclusive: 23 µM [inhibitor, single point]"
same,Potency,[4],"inconclusive: 10.3 µM [inhibitor, partial curve]"
same,Potency,[7],"inconclusive: 29.1 µM [inhibitor, single point]"
same,Potency,[13],inactive
same,Potency,[14],inactive
same,Potency,[15],inactive
Cc1nc(C2CCCCC2)c(-c2ccc(S(N)(=O)=O)c(F)c2)o1,Potency,[16],"inconclusive: 21.1 µM [cytotoxic, single point]"
same,Potency,[17],"inconclusive: 0.0344 µM [cytotoxic, full curve, poor fit]"
same,Potency,[18],inactive
same,Potency,[19],"inconclusive: 17.4 µM [cytotoxic, partial curve, poor fit]"
same,Potency,[20],"inconclusive: 19.5 µM [cytotoxic, partial curve]"
same,Potency,[21],"inconclusive: 27.1 µM [inhibitor, single point]"
same,Potency,[22],active: 14.4 µM
same,Potency,[23],"inconclusive: 27.8 µM [inhibitor, partial curve]"
same,Potency,[24],"inconclusive: 13.1 µM [inhibitor, partial curve]"
same,"activity change, negative = inhibition",[25],inconclusive: -33.9% [inhibitor]
same,Potency,[26],"inconclusive: 22.4 µM [inhibitor, single point]"
same,Potency,[2],"inconclusive: 21.9 µM [inhibitor, single point]"
same,Potency,[10],active: 2.19 µM
same,Potency,[7],"inconclusive: 33.5 µM [inhibitor, single point]"
same,Potency,[8],inactive
same,Potency,[13],"inconclusive: 1.58 µM [cytotoxic, single point]"
CC1CCC2(C(=O)OC3OC(CO)C(O)C(O)C3O)CCC3(C)C(=CCC4C5(C)CC(O)C(O)C(C)(C(=O)O)C5CCC43C)C2C1(C)O (stereo not given),Potency,[5],inactive
same,outcome,[7],inactive
same,Potency,[8],"inconclusive: 10 µM [cytotoxic, single point]"
C/C=C(\C)C(=O)OC1C[C@@]2(COC(C)=O)O[C@H]2/C=C\[C@@]2(C)O[C@@H]2[C@H]2OC(=O)C(COC(C)=O)=C12 (stereo not given in full),Potency,[9],"inconclusive: 20 µM [inhibitor, partial curve]"
same,Potency,[3],active: 8.93 µM
same,Potency,[11],"inconclusive: 20.7 µM [activator, partial curve, poor fit]"
same,Potency,[7],"inconclusive: 14.2 µM [inhibitor, single point]"
same,Potency,[8],inactive
same,Potency,[13],"inconclusive: 7.94 µM [rising, partial curve, poor fit]"
